According to patent US20240301048A1 (LANIER BIOTHERAPEUTICS, published 2024):
Values joined by “and” are separate entries in the source; they are usually repeats but may differ in a detail not shown here. Identical values can stand only once. Blank lines part the entries; values can stand above or below the binder they belong to.

Experiments:
Experiment in all cases: cell-based or functional assay
[1] = biological target: T1, VEGF (UniProt P15692-4 27-191, limits assumed)
T1 sequence (looked up): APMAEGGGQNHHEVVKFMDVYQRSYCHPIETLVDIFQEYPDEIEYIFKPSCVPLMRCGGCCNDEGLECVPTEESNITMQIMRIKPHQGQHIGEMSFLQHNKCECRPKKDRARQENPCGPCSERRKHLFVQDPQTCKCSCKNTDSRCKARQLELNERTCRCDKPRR

[2] = biological target: T1, VEGF; remark: listed apart in the source
[3] = biological target: recombinant human IL-17A (R&D Systems) (human, UniProt Q16552 24-155)
UniProt Q16552, sequence (Q16552 24-155 limits assumed): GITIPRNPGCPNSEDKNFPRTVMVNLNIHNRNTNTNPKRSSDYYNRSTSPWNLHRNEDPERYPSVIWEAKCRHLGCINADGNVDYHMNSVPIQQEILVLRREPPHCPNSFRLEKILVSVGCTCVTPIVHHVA

IC50, VEGF bioassay (RLU), column 'Approx. IC50 (nM)' of the legend [1]: ~2.2 nM
B1: aflibercept (Fc fusion)
chain: SDTGRPFVEMYSEIPEIIHMTEGRELVIPCRVTSPNITVTLKKFPLDTLIPDGKRIIWDSRKGFIISNATYKEIGLLTCEATVNGHLYKTNYLTHRQTNTIIDVVLSPSHGIELSVGEKLVLNCTARTELNVGIDFNWEYPSSKHQHKKLVNRDLKTQSGSEMKKFLSTLTIDGVTRSDQGLYTCAASSGLMTKKNSTFVRVHEK[human IgG1 Fc not given here]

VEGF Bioassay Potency (IC50, nM) [2]: 1.7 nM
IL-17A Bioassay Potency (IC50, nM) [3]: 15.8 nM and 10.2 nM
B2: 652.1 (Fc fusion)
chain: SDTGRPFVEMYSEIPEIIHMTEGRELVIPCRVTSPNITVTLKKFPLDTLIPDGKRIIWDSRKGFIISNATYKEIGLLTCEATVNGHLYKTNYLTHRQTNTIIDVVLSPSHGIELSVGEKLVLNCTARTELNVGIDFNWEYPSSKHQHKKLVNRDLKTQSGSEMKKFLSTLTIDGVTRSDQGLYTCAASSGLMTKKNSTFVRVHEK[human IgG1 Fc not given here]GGGSGGGGSEVQLVESGGGLVQPGGSLRLSCAASGFAFSSYDMSWVRQAPGKGLEWVAYISSGGGNTYYPDTVKGRFTISRDNAKNTLYLQMNSLRAEDTAVYYCAREALTMISTRDYYAMDYWGQGTLVTVSSGGGGSGGGGSGGGGSDIQLTQSPSSLSASVGDRVTITCGASESVDNYGISFMDWYQQKPGKAPKLLIYAASNQGSGVPSRFSGSGSGTDFTLTISSLQPEDFATYYCQQSKEVPYTFGQGTKVEIKR
